The source of these data is ChEMBL document CHEMBL4888484, “Replenishing the malaria drug discovery pipeline: Screening and hit evaluation of the MMV Hit Generation Library 1 (HGL1) against asexual blood stage Plasmodium falciparum ,using a nano luciferase reporter read-out” (2022).

Screen size: about 150,000 compounds; about 540 (0.36%) showed an effect of 50% or more. Some of the results follow.

The test deals with Plasmodium falciparum. The test is described as follows: Primary screen in NF54 nanoGlo assay, in single point, at 2uM, 72h; a lower Z score goes with more inhibition. Type of test: functional, Erythrocyte. Particulars: timepoint 72 hour.
On to `CCCN1CCN(C(=O)c2cccn2C2CC2)CC1=O`, for which the “% Inhibition” value is on record as -7% and the Z score was 1.34.
The matching figures for `O=C(Cc1cccc(Br)c1)NCC1CCNCC1`: -6% and 0.59.
As to `CCOc1cc(CNS(=O)(=O)N(C)C)ccn1`, the “% Inhibition” value was 0% and the Z score is 0.01.
As for `Cc1cc(C(=O)N2CCc3[nH]nc(C)c3C2)c2c(C)noc2n1`, the “% Inhibition” value is 1% and the Z score is on record as -0.09.
With `CCc1ccccc1NC(=O)c1sccc1S(=O)(=O)N1CCc2ccccc2C1`, the “% Inhibition” value was found to be 38% and the Z score is -1.2.
As for `Cc1ccc(N2CCOC2=O)c(-c2cccc(C(=O)N3CCC[C@H](C#N)C3)c2)c1`, the “% Inhibition” value is on record as -1% and the Z score was determined as 0.17.
Regarding `C=C(C)CN(CC)C(=O)Nc1cc(C)cc(C)n1`, the “% Inhibition” value came out at 1% and the Z score is -0.09.
Regarding `Cc1ccc(CN(Cc2ccc(F)cc2)C(=O)CN(C2CC2)S(=O)(=O)c2ccccc2)o1`, the “% Inhibition” value is listed as -7% and the Z score was 1.08.
In the case of `O=C(NCc1cccs1)c1nn(-c2ccc(F)cc2)c2ccccc2c1=O`, the “% Inhibition” value was -7% and the Z score came out at 0.92.
Consider `Cc1ccc(NC(=O)N[C@@H](CC(C)C)c2nc(-c3nnc[nH]3)no2)cc1`, for which the “% Inhibition” value was -8% and the Z score came out at 1.19.
On the same counts, the results for `CC1CC(CS(=O)(=O)N2CCOC(Cn3cccn3)C2)CCO1` (stereo not drawn) are -2% and 0.35.
With `Cc1ccc2oc(-c3noc(C(=O)NCc4ccccn4)n3)c(C)c2c1`, the “% Inhibition” value is recorded as -6% and the Z score is reported as 0.79.
On the same counts, the results for `CCc1cc(CC)c(-c2cc(-c3ccccc3)on2)c(CC)c1-c1cc(-c2ccccc2)on1` are 46% and -1.99.
On the same counts, the results for `CCc1ccc(OCCN(C)C(=O)C(=O)Nc2nnc(CC)s2)cc1` are -2% and 0.3.
On to `Cc1nccn1CCCCNC(=O)c1c(O)cc(Cl)cc1Cl`, for which the “% Inhibition” value is -11% and the Z score amounted to 1.46.
Regarding `CC(C)NC(=O)N[C@@H]1CC[C@H]2CCOc3ccccc3C(=O)N3CCN(C(=O)OC(C)(C)C)C[C@H]3C(=O)NC[C@H]1O2`, the “% Inhibition” value worked out at 0% and the Z score was determined as 0.04.
`O=C(CNC(=O)c1csc(Nc2ccccc2Cl)n1)NC[C@H]1CCCO1`: the “% Inhibition” value is recorded as -1% and the Z score is 0.28.
On the same counts, the results for `COc1ccc2cc1Oc1cccc(c1)CO[C@H]1CCN(C(=O)c3cnc(N4CCN(C)CC4)nc3C)C[C@H]1NC(=O)CC2` are -5% and 0.64.
Turning to `CC(C)(C)OC(=O)NCCCC(=O)Nc1cc(F)c(F)cc1F`, the “% Inhibition” value is reported as -11% and the Z score worked out at 2.16.
For the compound `Cc1sc(C)c(S(=O)(=O)Nc2ccccc2)c1-c1ccno1`, the “% Inhibition” value is -12% and the Z score came out at 2.06.
In the case of `O=C(CC1CCC(c2ccccc2)CC1)N1CCCS1(=O)=O` (stereo not drawn), the “% Inhibition” value is -2% and the Z score was 0.21.
Consider `CCCC(=O)NCC(=O)N[C@@H](Cc1ccccc1)c1cccs1`, for which the “% Inhibition” value worked out at 0% and the Z score is given as -0.06.
On the same counts, the results for `Cc1nnnn1CCC(=O)N(C)CCC[C@H]1CCCO1` are -10% and 1.32.
`CC(C)NC(=NC1CCCCC1)NCc1cc2ccccc2o1`: the “% Inhibition” value is 4% and the Z score is -0.58.
For the compound `Cc1cccc(CN2CC[C@@]3(CCCN(Cc4cccc(F)c4F)C3)C2)n1`, the “% Inhibition” value is reported as -10% and the Z score stood at 1.37.
Take `CN(C)CCN(CC1CCCO1)C(=O)C1CC1c1cccnc1` (stereo not drawn): the “% Inhibition” value is -9% and the Z score came to 1.17.
The matching figures for `Cc1ccc(C(=O)N2c3ccccc3C[C@H]2c2nc(C3CC3)no2)cn1`: -6% and 0.74.
On the same counts, the results for `Cc1cc(O[C@H]2CCCN(C(=O)Cc3ccc4c(c3)OCO4)C2)nc(C)n1` are 0% and 0.
`O=C(NCc1nc(-c2ccco2)n[nH]1)Nc1ccccc1`: the “% Inhibition” value was -6% and the Z score is 1.12.
`COCc1nsc(NC(=O)Cn2nc(C)cc2C)n1`: the “% Inhibition” value is reported as -3% and the Z score stood at 0.35.
Consider `Cc1cc(C(=O)N2CCC[C@@H](Nc3ncc(F)cn3)C2)on1`, for which the “% Inhibition” value was -6% and the Z score was determined as 0.77.
`Cc1cc(C)n(Cc2nc(-c3cc(N4CCN(C)CC4)ccn3)no2)n1`: the “% Inhibition” value is -11% and the Z score was found to be 1.18.
For `Cc1cccc(NC(=O)C(C)(C)C#N)c1C`, the “% Inhibition” value is given as 5% and the Z score is -1.
As for `CNc1ccc(C)cc1CN[C@H]1CCO[C@@H]1c1ccc(OC)nc1`, the “% Inhibition” value was 0% and the Z score is recorded as 0.04.
Regarding `Cc1ccc(-c2c3c(=O)n(C)c(=O)n(C)c3c3c(-c4ccccc4)cc(C)nn23)cc1`, the “% Inhibition” value is -11% and the Z score is listed as 1.44.
Take `CC(=O)N(C)c1ccc(-c2cccc(-c3ccn(C[C@H]4COCCO4)n3)c2)cc1`: the “% Inhibition” value is on record as -19% and the Z score is 2.45.
For `O=C(CNC1(CO)CCOCC1)N[C@H]1CCCc2ccccc21`, the “% Inhibition” value is reported as -4% and the Z score is given as 0.61.
On the same counts, the results for `Cc1ccc(-c2ccc3nn(Cc4cc(F)cc(F)c4)c(=O)n3n2)cc1C` are -18% and 2.27.
On to `COCC1(C(=O)N2CCc3[nH]cnc3[C@H]2c2ccncc2)CCC1`, for which the “% Inhibition” value is reported as -6% and the Z score is on record as 0.55.
The matching figures for `COC1CC(C(=O)NCC2(C#N)CCCCC2)C1` (stereo not drawn): -3% and 0.41.
For `OC[C@H]1CCCN(CCNC2CCN(c3ccccc3Cl)CC2)C1`, the “% Inhibition” value is given as 0% and the Z score came out at 0.07.
Consider `Cc1ccc(CN(CCO)C(=O)c2cc(F)ccc2OCCN)s1`, for which the “% Inhibition” value amounted to 13% and the Z score is reported as -1.78.
On the same counts, the results for `Clc1cccc(OC2CN(Cc3cc(C4CC4)n[nH]3)C2)c1` are -2% and 0.27.
Turning to `COCCOCCS(=O)(=O)Nc1cccc(CO)c1Cl`, the “% Inhibition” value is given as 1% and the Z score is given as -0.25.
On the same counts, the results for `COc1cc2c(cc1OC)/C(=N/c1ccc(Br)cc1)NC1(CCCC1)C2` are -2% and 0.25.
On the same counts, the results for `c1cn2c(CNc3ccc4[nH]ncc4c3)cnc2cn1` are -12% and 1.33.
The matching figures for `CNC(=O)c1ccc(N[C@H]2CCCc3cc(OC(F)F)ccc32)nn1`: -10% and 1.1.
As for `CCNC(=O)CNC(=O)N[C@@H](CC)c1ccccc1Br`, the “% Inhibition” value is listed as -6% and the Z score is on record as 0.57.
In the case of `C[C@]1(C(=O)O)CCN(C(=O)Cc2cccs2)C1`, the “% Inhibition” value is recorded as -14% and the Z score was 1.99.
The matching figures for `O=C(NC1CCCCCC1)[C@@H]1CCN(c2ccccc2)C1=O`: -11% and 1.1.
`CCC(CC)CN(CC)C(=O)C(C)(C)S(=O)(=O)C1CC1`: the “% Inhibition” value was -25% and the Z score stood at 2.95.
With `O=C(NC1CC1)C1CCCN(CC(O)c2cc(F)ccc2F)C1` (stereo not drawn), the “% Inhibition” value worked out at 7% and the Z score is reported as -1.02.
For `CC(C)C(=O)N1CCC(CCOCc2cccc(F)c2)CC1`, the “% Inhibition” value was -12% and the Z score came out at 2.25.
As to `CCOC(=O)N1CCc2c(sc(NC(=O)c3cc(C)n(CC)n3)c2C(N)=O)C1`, the “% Inhibition” value is given as -1% and the Z score was 0.2.
Consider `COc1ccc(Cl)cc1C(=O)N1CC(n2nccn2)C1`, for which the “% Inhibition” value is given as -6% and the Z score turned out to be 1.09.
In the case of `CS(=O)(=O)c1ccccc1C(=O)N1CCC([C@H]2CCOC2)CC1`, the “% Inhibition” value is given as -16% and the Z score came to 2.11.
On to `Cc1ccc(-c2c(C)n(C)c(=O)n(C)c2=O)o1`, for which the “% Inhibition” value is reported as -16% and the Z score was found to be 2.08.
`O=C(c1ccncc1Cl)N1CCC2(CCCCC2)C1`: the “% Inhibition” value amounted to 3% and the Z score is recorded as -0.34.
For the compound `O=C(c1n[nH]c2ccccc12)N1CCC(COc2ccccn2)CC1`, the “% Inhibition” value worked out at 2% and the Z score was -0.34.
The matching figures for `C#CCOCC(O)CN(Cc1cccc(C)c1)C(C)CC` (stereo not drawn): -8% and 1.46.
The matching figures for `COc1nccc(NCc2cccnc2Oc2ccc(F)cc2F)c1C#N`: -7% and 0.78.
As for `CC(=O)c1cccc(NC(=O)C2CCN(c3cc(C4CC4)ncn3)CC2)c1`, the “% Inhibition” value worked out at 1% and the Z score is recorded as -0.21.
The matching figures for `COc1ccc(NS(=O)(=O)c2ccc(N3CCCC3)c(NS(=O)(=O)c3ccc(Cl)cc3)c2)cc1`: -11% and 1.76.
Take `Cc1ccc(C(=O)Nc2ccc3c(c2)cc(C(=O)Nc2ccccc2)n3Cc2cccc(F)c2)cc1`: the “% Inhibition” value stood at 1% and the Z score is on record as -0.13.
Consider `CCNC(=O)c1ccc(N(C)C[C@H](C)O)nc1`, for which the “% Inhibition” value was -7% and the Z score is 1.38.
Turning to `CC[C@H](NCCN1C(=O)CNC1=O)c1cccc(Cl)c1F`, the “% Inhibition” value is -21% and the Z score is on record as 2.7.
Regarding `COc1ccc(Cc2noc([C@@H]3CN(C(C)=O)CCO3)n2)c(F)c1`, the “% Inhibition” value was -2% and the Z score turned out to be 0.28.
As for `Cc1c(Cl)cccc1S(=O)(=O)N1CC2(COC(C)(C)OC2)C1`, the “% Inhibition” value is recorded as -10% and the Z score is given as 1.49.
Consider `FC(F)(F)c1cnccc1N1CC[C@H](c2cnccn2)C1`, for which the “% Inhibition” value is listed as -13% and the Z score is on record as 1.64.
The matching figures for `COCCNC(=O)c1ccc(Nc2c(Oc3ccc4c(c3)OCO4)cnn(-c3ccccc3)c2=O)cc1`: -17% and 1.68.
In the case of `CCn1nc(C(=O)NCc2ccncc2)c2c1CC[C@H](NC1Cc3ccccc3C1)C2`, the “% Inhibition” value is -9% and the Z score came out at 0.99.
On the same counts, the results for `O=c1c2ccnn2ccn1CC1CCOCC1` are 1% and -0.23.
`CC1COCCC1CNC(=O)NC(C)C1CCC(F)(F)CC1` (stereo not drawn): the “% Inhibition” value was -6% and the Z score was 0.79.
On the same counts, the results for `CCOc1ccc(C(=O)N/C(=N/c2ccc3c(c2)OCCO3)NCCN2CCOCC2)cc1` are -22% and 2.03.
For `CC1CCN(C(=O)c2cnn3ccc(C4CCN(C(=O)Nc5cccc(F)c5)CC4)cc23)CC1`, the “% Inhibition” value was -11% and the Z score stood at 1.26.
The matching figures for `Cc1nn(C)c(C)c1CCN(C)C(=O)[C@H]1CCC[C@H]1NC(=O)c1ccncc1`: -8% and 1.09.
`Cc1ccc(-n2cnc3c2CCN(C(=O)C(=O)Nc2c4c(nn2C)CCCC4)C3)cc1`: the “% Inhibition” value was -13% and the Z score stood at 1.99.
For the compound `O=C1COc2ccc(S(=O)(=O)N3CCC(C(=O)N[C@H]4CCCc5ccccc54)CC3)cc2N1`, the “% Inhibition” value was -6% and the Z score stood at 1.24.
With `Cc1cnc(CN2CCN(Cc3ncc(C)o3)[C@H](C(=O)N(C)C)C2)o1`, the “% Inhibition” value turned out to be 8% and the Z score is reported as -0.83.
On to `Cn1ccnc1C(=O)[C@H](C#N)c1ccccn1`, for which the “% Inhibition” value is -10% and the Z score was found to be 1.64.
On the same counts, the results for `Cn1nccc1S(=O)(=O)N1CC(=O)Nc2c(F)cccc21` are 0% and 0.04.
On the same counts, the results for `C[C@@H](Cn1cnnc1)NC(=O)c1ccn(CCc2ccccc2)n1` are 2% and -0.24.
As to `O=C(c1ccccn1)[C@H]1CCCN(C(=O)NCCc2noc(C3CC3)n2)C1`, the “% Inhibition” value was -13% and the Z score came to 2.43.
On to `COC1CCC(NC(=O)Nc2cc(F)ccc2OC(F)F)C1` (stereo not drawn), for which the “% Inhibition” value is -16% and the Z score was 1.65.

Broadly, the % Inhibition is the drop in the measured response relative to a control, in per cent.
